Assay results: patent publication US8865653B2, “Method of treatment for immunogenic treatment resistant cancer” (Institut Gustave Roussy, priority 2010, dated 2014)

Test system: U2OS cells stably expressing G3BP-GFP or GFP-LC3
Assay: Stress granules (G3BP-GFP) and autophagosomes (GFP-LC3)

[NH2][Pt]([NH2])([Cl])[Cl] [CDDP, cisplatin] was tested, and the “formation of stress granules and macroautophagy” value was “failed to stimulate the formation of stress granules and macroautophagy”.
